# Source: article PMC4336329 (PLoS ONE, 2015)
# In all, about 310,000 compounds went through this assay and about 2,200 (0.71%) showed an effect of 50% or more. The effect is printed as a negative number. Some of the results follow.
# Target: human ether-à-go-go-related gene (hERG) potassium channel (human, UniProt Q12809)
# Experiment: primary screen, population patch clamp on CHO cells stably expressing hERG
# Chain of human ether-à-go-go-related gene (hERG) potassium channel (Q12809 whole entry, looked up): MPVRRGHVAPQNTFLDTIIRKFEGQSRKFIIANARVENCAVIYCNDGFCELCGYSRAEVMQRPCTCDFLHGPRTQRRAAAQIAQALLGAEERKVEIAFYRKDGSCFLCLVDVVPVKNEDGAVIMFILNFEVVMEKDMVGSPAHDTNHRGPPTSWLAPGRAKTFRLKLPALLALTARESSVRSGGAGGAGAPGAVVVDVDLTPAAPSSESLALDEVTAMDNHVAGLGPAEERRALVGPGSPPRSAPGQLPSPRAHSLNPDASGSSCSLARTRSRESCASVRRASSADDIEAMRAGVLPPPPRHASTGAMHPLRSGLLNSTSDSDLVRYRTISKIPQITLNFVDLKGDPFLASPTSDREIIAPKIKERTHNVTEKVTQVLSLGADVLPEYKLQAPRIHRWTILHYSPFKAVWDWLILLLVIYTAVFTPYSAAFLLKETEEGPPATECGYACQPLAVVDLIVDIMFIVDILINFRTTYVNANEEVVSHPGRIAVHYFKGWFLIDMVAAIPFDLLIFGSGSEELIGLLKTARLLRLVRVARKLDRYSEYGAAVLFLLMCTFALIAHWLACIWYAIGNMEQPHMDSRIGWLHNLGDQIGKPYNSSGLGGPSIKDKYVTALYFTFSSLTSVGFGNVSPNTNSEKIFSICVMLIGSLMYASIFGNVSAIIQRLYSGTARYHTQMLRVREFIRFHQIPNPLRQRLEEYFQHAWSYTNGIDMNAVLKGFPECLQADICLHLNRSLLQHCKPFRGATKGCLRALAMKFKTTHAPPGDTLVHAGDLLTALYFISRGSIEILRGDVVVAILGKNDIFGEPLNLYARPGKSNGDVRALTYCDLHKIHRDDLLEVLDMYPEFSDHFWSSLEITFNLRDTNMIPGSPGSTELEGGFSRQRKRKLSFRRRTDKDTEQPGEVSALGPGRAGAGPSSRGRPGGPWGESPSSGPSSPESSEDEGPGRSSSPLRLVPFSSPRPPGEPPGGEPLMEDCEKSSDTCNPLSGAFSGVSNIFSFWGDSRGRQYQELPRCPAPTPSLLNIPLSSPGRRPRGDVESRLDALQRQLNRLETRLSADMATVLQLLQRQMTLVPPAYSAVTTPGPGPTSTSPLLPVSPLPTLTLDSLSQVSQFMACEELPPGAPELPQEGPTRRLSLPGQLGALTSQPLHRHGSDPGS
row,SMILES,"hERG current change (%, negative = inhibition) at 1uM"
1,O=C1NCCN(Cc2ccc(Cl)c(F)c2)C1CC(=O)N1CCCCO1 (centres unmarked),11.1%
2,CCC(=O)N1c2ccc(S(=O)(=O)CCC(=O)NC3CCCC3)cc2CC1C (centres unmarked),0.06%
3,COc1ccc(NC(=O)C2CCN(c3nc(-c4ccc(OC)cc4)no3)CC2)cc1,14.8%
4,CN(C(=O)c1ccc(NC(=O)Cc2cccc(NC(=O)C3CCCN(C(=O)C4CC4)C3)c2)cc1)C1CCCC1 (centres unmarked),9.29%
5,O=C1Nc2ccccc2CCC1Sc1nnc(-c2ccc(Cl)cc2)s1 (centres unmarked),4.32%
6,COC(=O)/C=C1/N/C(=N\c2nc(C)cc(C)n2)N(c2cccc(C)c2)C1=O,1.56%
7,COC(=O)Nc1nnc(COc2cccc(C)c2)s1,14.6%
8,COc1ccccc1N1CCN(CC(O)COc2ccc(C)cc2C)CC1.Cl (centres unmarked),-31%
9,CCOC(=O)Cn1c(-c2cccnc2Cl)nc2cc(Cl)c(Cl)cc21,0.794%
10,Cc1ccc(NC(=S)N(N)CCO)cc1,8.27%
11,Cc1cccc(OCCCN2C(=O)C(=O)c3cc(C)ccc32)c1,-0.187%
12,Cc1cccc(C)c1NC(=O)CSCCO,12.7%
13,CC(C)c1ccc(C(C)NC(=S)NC2CCCCC2)cc1 (centres unmarked),8.95%
14,CCN1CCN(S(=O)(=O)c2ccc(OC)cc2)CC1,9.32%
15,N#Cc1cnc2c(-c3ccccc3)c(-c3ccccc3)nn2c1N,0.284%
16,CCOc1ccc(/C=N/NC(=O)C2CCCC2)c(OCC)c1,-2.55%
17,Cc1ccc(CC(=O)Nc2ccccc2-c2ccccc2)cc1C,9.09%
18,CCC1(c2ccccc2)NC(=O)N(CC(=O)NCc2ccccc2OC)C1=O (centres unmarked),14.4%
19,O=C(NC1CCCCC1)C(c1ccccc1)N(C(=O)c1cccs1)c1ccc2c(c1)OCO2 (centres unmarked),3.71%
20,COc1ccccc1Oc1ccc2c(c1)C(=O)N(c1cccc(O)c1)C2=O,17.7%
21,CC(C)c1ccc2c(c1)c(SC(C)(C)C)c(CC(C)(C)C(=O)[O-])n2Cc1ccc(Cl)cc1.[Na+],10.1%
22,O=C(c1ccc(Cl)cc1)N1CCCC(c2ccccc2)=N1,5.75%

row,SMILES,"hERG current change (%, negative = inhibition) at 1uM"
1,CCN(CC)S(=O)(=O)c1cccc(-c2nnc(SCC#N)n2Cc2ccccc2)c1,-0.562%
2,CCCCOc1ccccc1C1NC(=O)NC(C)=C1C(=O)OCCOC (centres unmarked),3.22%
3,O=C1c2ccccc2C(Nc2ccc(-c3nc4ccccc4[nH]3)cc2)N1Cc1ccco1 (centres unmarked),12%
4,Cc1ccc(S(=O)(=O)Nc2cc(C(=O)NCCN(C)C)ccc2N2CCCC2)cc1,3.78%
5,CC(C)Cc1nnc(NC(=O)CCC(=O)NC2CCCCCCC2)s1,12.3%
6,Cn1c[n+](C)cc1/C=N/O.[I-],15.2%
7,CCCc1c(O)nc(SCC(=O)N2CCCCC2)[nH]c1=O,21.8%
8,CCOC(=O)C(C)N1CC(=O)N(c2ccccc2)C1=O (centres unmarked),12.9%
9,Cc1ccc(/C=N/NC(=O)CSc2nc3ccccc3c(=O)n2-c2ccccc2)s1,-2.86%
10,COc1ccc(-c2cc(-c3ccc(N)cc3)nc(N)c2C#N)cc1OC,5.88%
11,CCOC(=O)N1CCN(C(=O)CSCC(=O)Nc2nc(-c3ccc(OC)cc3)cs2)CC1,-8.03%
12,Brc1cc(Cc2nnc(-c3ccccc3)o2)c(Br)s1,16.5%
13,CCOC(=O)c1c(C)[nH]c(C(=O)OC(C)C(=O)NC2CCCCC2C)c1C (centres unmarked),5.79%
14,COc1ccc(OC)c(S(=O)(=O)NCC(c2ccc3c(c2)OCO3)N2CCOCC2)c1 (centres unmarked),-0.985%
15,COc1ccc(/C=N/NC(=O)CCn2cnc(-c3ccccc3)c2-c2ccccc2)cc1,-7.9%
16,Cc1ccc(S(=O)(=O)N2CCN(C(=O)CN3C(=O)NC4(CCOc5ccccc54)C3=O)CC2)cc1 (centres unmarked),8.13%
17,CCn1c(SCC(=O)NCC2CCCO2)nnc1-c1ccc(Cl)cc1 (centres unmarked),3.09%
18,O=C(c1ccc(COCC(F)(F)F)cc1)N1CCN(c2ccccn2)CC1,9.82%
19,CC(C)CNC(=O)c1ccccc1NC(=O)c1ccc(CN2CCOCC2)cc1,1.96%
20,CCOC(=O)C(NC(C)=O)(Nc1ccc(S(=O)(=O)Nc2ncccn2)cc1)C(F)(F)F (centres unmarked),18.1%
21,COc1ccc(CC(=O)Nc2sc3c(c2C(N)=O)CCCC3)cc1,-0.701%
22,Cc1c(O)c2c3c(cccc3c1O)C(=O)N(c1ccccc1)C2=O,3.61%
